Reference: patent publication US20220332848A1 (published 2022)

How the values were obtained:
[1] = target: human CTLA-4 (human, UniProt P16410 36-223); assay: FACS binding CHO-K1 cells expressing human CTLA-4
[2] = target: CD47 (UniProt Q08722); assay: FACS binding CHO-K1 cells expressing CD47

CD47, sequence (Q08722 19-323): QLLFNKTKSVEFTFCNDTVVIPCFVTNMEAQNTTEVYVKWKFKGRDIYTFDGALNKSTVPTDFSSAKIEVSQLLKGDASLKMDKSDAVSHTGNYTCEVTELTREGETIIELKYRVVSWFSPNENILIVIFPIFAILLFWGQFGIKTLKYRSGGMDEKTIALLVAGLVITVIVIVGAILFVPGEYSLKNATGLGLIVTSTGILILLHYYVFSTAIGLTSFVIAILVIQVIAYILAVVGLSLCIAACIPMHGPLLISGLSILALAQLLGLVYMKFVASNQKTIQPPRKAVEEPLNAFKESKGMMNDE
human CTLA-4, sequence (P16410 36-223): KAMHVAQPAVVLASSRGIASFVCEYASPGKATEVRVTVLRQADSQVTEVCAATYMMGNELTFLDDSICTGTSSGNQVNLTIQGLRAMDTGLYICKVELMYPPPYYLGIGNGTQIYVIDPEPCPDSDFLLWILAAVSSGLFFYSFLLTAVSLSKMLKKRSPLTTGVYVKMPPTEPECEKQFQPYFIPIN

- EC50 [1]: 2.21 nM
- EC50 [2]: ~1.4 nM
B1: Fc fusion protein sdAb-CTLA4-IgG4PE (Fc fusion)
chain: EVQLVESGGGLVQPGGSLRLSCAASGYTYSRHCLGWFRQAPGKGREAVSTIDSDGSTSYADSVKGRFTISRDNAKNTLYLQMNSLRPEDTAVYYCAIGPNPRYCSGAPNTRGAEHYFGYWGQGTLVTVSS[letters of human IgG4 Fc with changes left out]
